PubChem BioAssay AID652104 (National Center for Advancing Translational Sciences (NCATS), 2013)
Several values for one entry are separate records, joined by “and”; a condition that tells them apart may be missing. Equal values may be shown once. About 7,200 (1.8%) of roughly 410,000 compounds were called active. The shares of active, inactive and inconclusive entries below differ from those in the screen. The call rests on the fitted dose curve; in most records, active means well fitted activation curve with a large enough effect; inconclusive means small, poorly fitted or top-dose-only effect, or another doubt; inactive means no such curve, though single readings can be large or run the other way. Where the call is inconclusive, the potency comes from a doubtful curve fit.

assay: qHTS of TDP-43 Inhibitors; settings: TDP-43 expressing yeast growth rescue, BacTiter-Glo, 24 h; growth rescue (activation): at 46.1 µM (top of the series) unless noted; further: nearly all actives have a fitted effect of over 50% in size; on growth rescue (activation): % of control where 0% means no effect
Procedure, shortened: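 Luminescence from BacTiter-Glo reports growth of TDP-43-expressing yeast after 24 hr at 30 deg C with compound. Cells were raffinose-pregrown to mid-log, then seeded in galactose medium at OD600=0.02.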
Potency means the concentration at half of the fitted maximal effect; tags describe the fitted curve by direction and shape.

Structure (SMILES) | Potency | growth rescue (activation)
COc1cccc(C2(O)CCN(C(=O)c3cccs3)CC2)c1 | inconclusive: 35.5 µM [activator, single point] | –
CC[C@@H]1Cc2[nH][nH]c(=O)c2[C@@H](c2ccc(F)cc2)O1 | inconclusive: 2.51 µM [activator, partial curve] | –
COCCN=c1scc(-c2ccco2)n1/N=C/c1ccc(O)c(O)c1O | inconclusive: 10 µM [activator, partial curve] | –
O=C(Nc1cc(C(F)(F)F)ccc1N1CCCC1)C1CCCO1 (centres undefined) | inconclusive: 12.6 µM [activator, single point] | –
CCCOc1ccc(N/C=C/C(=O)c2ccc(OC)c(OC)c2)cc1 | – | inactive: 6.41%
CC1=C(C(=O)OC2CCCCC2)C(c2ccc(C)o2)C2=C(CC(C)(C)CC2=O)N1 (centres undefined) | inconclusive: 31.6 µM [activator, single point] | –
Cc1ccccc1Cn1c(=O)n(Cc2ccc3c(c2)OCO3)c(=O)c2oc3ccccc3c21 | – | inactive: 9.79%
O=C(c1ccc(C(F)(F)F)cc1)N1CCC(c2noc(-c3ccc(S(=O)(=O)N4CCCC4)cc3)n2)CC1 | – | inactive: 14.6%
O=C(c1cccs1)N(Cc1cccnc1)c1nc2c(Cl)cccc2s1 | inconclusive: 35.5 µM [activator, single point] | –
NC(=O)c1ccccc1NC(=O)C1CCCN(c2ncnc3onc(-c4ccc(F)cc4)c23)C1 (centres undefined) | – | inactive: 18.6%
CC(=O)c1cc2ccc(O)cc2oc1=O | – | inactive: 6.43%
O=C(Nc1cccc(C(=O)N2CCCC2)c1)C1CCC1 | – | inactive: -5.83%
O=C(N/N=C/c1cccc(C(F)(F)F)c1)c1cc2c(s1)-c1ccccc1CC2 | – | inactive: -3.84%
CCCN(c1ccc(C(C)C)cc1)S(=O)(=O)c1ccc2c(c1)CCN2C(=O)CC | – | inactive: -9.24%
O=C(CSc1ccc([N+](=O)[O-])cn1)Nc1nccs1 | – | inactive: 0%
CCCC1CCc2c(c3ccccc3[nH]c2=O)O1 (centres undefined) | inconclusive: 35.5 µM [activator, single point] | –
CC1=C(C(=O)OCc2ccccc2)C(c2ccccc2Cl)NC(=O)N1CCCC(=O)O (centres undefined) | inconclusive: 4.47 µM [activator, partial curve] | –
COc1ccc(Cc2nnc(SCC(=O)c3ccc(OC)cc3)o2)cc1 | inconclusive: 15.8 µM [activator, single point] | –
CCOC(=O)C(Nc1ccc2ccccc2c1)C(=O)OCC | inconclusive: 15.8 µM [activator, partial curve] | –
COc1ccc(-n2cc(-c3ccccc3)c3c(NC4CCCCC4)ncnc32)cc1 | – | inactive: -3.24%
Cc1cccc(NC(=O)c2cc([N+](=O)[O-])ccc2NCC2CCCO2)n1 (centres undefined) | inconclusive: 11.2 µM [activator, partial curve] | –
COc1cccc(C(=O)NCCSc2c(C)[nH]c3ccccc23)c1OC | inconclusive: 14.1 µM [activator, single point] | –
COc1ccc(CCNC(=O)C(=O)NCC(c2ccc3c(c2)OCO3)N2CCOCC2)cc1 (centres undefined) | – | inactive: -7.71%

Structure (SMILES) | Potency | growth rescue (activation)
CC1=C(C(=O)Nc2ccc(Cl)cc2)C(c2ccccc2C)n2ncc(C(=O)Nc3ccc(C)cc3)c2N1 (centres undefined) | – | inactive: 28.7%
CCCCNS(=O)(=O)c1ccc2nc(SCC(=O)Nc3cccc(F)c3)[nH]c2c1 | inconclusive: 0.501 µM [activator, full curve, poor fit] | –
CC1(C)CC(=O)C(C(=O)c2ccccc2)C(=O)C1 | inconclusive: 4.47 µM [activator, full curve] | –
CCc1nonc1NC(=O)c1oc2ccc(F)cc2c1C | inactive and inconclusive: 11.2 µM [activator, partial curve] | –
O=C(Nc1cccc(Cl)c1Cl)C1CCN(C(=O)c2cccs2)CC1 | inconclusive: 35.5 µM [activator, single point] | –
Cc1ccc(NC(=S)NC(=O)C2CC2)c(C)c1 | inconclusive: 12.6 µM [activator, single point] | –
CC(=O)N1N=C(c2cccc([N+](=O)[O-])c2)OC1(C)c1cccs1 (centres undefined) | inconclusive: 12.6 µM [activator, partial curve] | –
C=CCSC1=C(C#N)C(c2ccccc2Cl)C(C(=O)c2cccs2)C(O)(C(F)(F)F)N1 (centres undefined) | inconclusive: 35.5 µM [activator, single point] | –
Nc1nc(SCc2ccccc2[N+](=O)[O-])c2ncn(Cc3ccccc3)c2n1 | inconclusive: 2.24 µM [activator, single point] | –
COC(=O)c1cn(CCOc2ccc(C)cc2)c2ccccc12 | inconclusive: 11.2 µM [activator, partial curve] | –
O=C(NC(=S)NNC(=O)c1ccco1)c1ccccc1 | inconclusive: 2.82 µM [activator, full curve] | –
Cn1c(=O)n(C/C=C/c2ccccc2)c(=O)c2c1nc1n2CCN1c1ccc(F)cc1 | – | inactive: 10.2%
COc1ccc(S(=O)(=O)NCCc2sc(C)nc2C)cc1F | – | inactive: 12.9%
O=C(COC(=O)c1ccc(F)cc1)NCC1COc2ccccc2O1 (centres undefined) | inconclusive: 17.8 µM [activator, single point] | –
CSc1cccc(NC(=O)C2CCCN(c3ncnc4c3nc3n4CCCCC3)C2)c1 (centres undefined) | inconclusive: 17.8 µM [activator, single point] | –
O=C(CCCc1ccccc1)NCc1ccccc1Cl | inconclusive: 12.6 µM [activator, single point] | –
Cc1ccc(S(=O)(=O)N2CCC(C(=O)OCC(=O)N3CCc4ccccc43)CC2)cc1 | inconclusive: 1.26 µM [activator, full curve, poor fit] | –
O=C(COc1ccccc1)OCC(=O)c1c[nH]c2ccccc12 | inconclusive: 11.2 µM [activator, partial curve] | –
CC1(C(=O)Nc2cnc3ccccc3c2)CCN1C(=O)c1ccccc1CCc1ccccc1 (centres undefined) | inconclusive: 28.2 µM [activator, single point] | –
Cn1nc(-c2ccc(Cl)cc2)c2cc(C(=O)NCc3ccco3)sc21 | – | inactive: 19.9%
CCSc1nnc(NC(=O)c2cc(=O)c3cc(C)c(C)cc3o2)s1 | – | inactive: 21.7%
COc1cc(SC)ccc1C(=O)OCC(=O)NC1CCCCC1 | inconclusive: 12.6 µM [activator, single point] | –
CC(=O)c1cccc(NC(=O)C2CC(c3ccc(F)cc3)=NO2)c1 (centres undefined) | inconclusive: 15.8 µM [activator, single point] | –

Structure (SMILES) | Potency | growth rescue (activation)
COc1ccc(-c2coc3c(C(=O)NCC(C)C)cccc23)c(C)c1 | inconclusive: 11.2 µM [activator, partial curve] | –
Cc1cccc(NC(=O)CSc2nc3ccccc3nc2N2CCOCC2)c1C | – | inactive: 17.6%
S=C(NCC1CCCO1)N1CCN(c2nc(-c3ccccc3)cs2)CC1 (centres undefined) | inconclusive: 25.1 µM [activator, single point] | –
COc1cccc(N2CCN(S(=O)(=O)c3cccc4cccnc34)CC2)c1 | inconclusive: 7.08 µM [activator, single point] | –
CCN(CC)C(=O)CN1C(=O)/C(=C/c2ccccc2)SC1=S | – | inactive: -2.51%
O=C(NCc1ccccc1)c1ccc(S(=O)(=O)N2CCCCCC2)cc1 | inconclusive: 2.51 µM [activator, full curve, poor fit] | –
CN(CCOc1ccccc1)C(=S)Nc1ccc(OC(F)F)cc1 | inconclusive: 22.4 µM [activator, single point] | –
COC(=O)c1ccc(SCC(=O)N2CCC(C)CC2)c([N+](=O)[O-])c1 | inconclusive: 10 µM [activator, partial curve] | –
COc1ccc(C2=C(C)C(N3CCC(C(=O)Nc4ccc(F)cc4C)CC3)=NS2(=O)=O)cc1 | inconclusive: 35.5 µM [activator, partial curve, poor fit] | –
CCCS(=O)(=O)NC(=O)C1(C)CCCN(C(=O)c2cccs2)C1 (centres undefined) | inconclusive: 1 µM [activator, full curve, poor fit] | –
COc1ccc(NC(=O)COC(=O)c2ccc(OCc3c(C)noc3C)cc2)cc1OC | – | inactive: 14.5%
COc1ccc(C(=O)NCCn2ccc3ccccc32)cc1OC | inconclusive: 35.5 µM [activator, partial curve] | –
O=S(=O)(c1ccc(NCc2ccccc2)cc1)N1CCOCC1 | inconclusive: 10 µM [activator, partial curve, poor fit] | –
O=C1C=C(c2ccc(Cl)c(C(F)(F)F)c2)C[C@@H](c2ccc(F)cc2)C1 | inconclusive: 6.31 µM [activator, partial curve] | –
CCC(C)(C)NC(=O)CN(C(=O)CNS(=O)(=O)c1ccccc1)c1ccc2c(c1)OCCO2 | – | inactive: -17.7%
CCOc1cc(C2C(C(=O)N3CCCCC3)=C(C)NC3=C2C(=O)CC(C)(C)C3)ccc1O (centres undefined) | – | inactive: 22.5%
CCOC(=O)CNC(=O)c1sc2ncnc(N3CCc4ccccc4C3)c2c1C | inconclusive: 25.1 µM [activator, single point] | –
O=C(CSC1CC(=O)N(CC(c2ccccc2)c2ccccc2)C1=O)Nc1ccc(Cl)cc1 (centres undefined) | inconclusive: 25.1 µM [activator, partial curve] | –
C1=C(CCNc2ncnc3nc[nH]c23)CCCC1 | inconclusive: 5.62 µM [activator, full curve, poor fit] | –
O=C1NC[C@H](CCCCN2CCN(CC3CCCCC3)C(=O)C2=O)N(CCC2CCCCC2)C1=O | – | inactive: 15%
Cc1ccc(N(Cc2cccs2)C(=O)c2ccccc2Cl)cc1 | – | inactive: 10.7%
Cc1ccc(NC(=O)Cn2c(=O)n(Cc3ccco3)c(=O)c3ccccc32)c(C)c1 | inconclusive: 0.316 µM [activator, full curve, poor fit] | –
CCOc1ccc(C2CC(=O)N(c3cccc(F)c3)C3=C2C(=O)OC3)cc1 (centres undefined) | inconclusive: 35.5 µM [activator, partial curve, poor fit] | –
